Some of the results follow.

This experiment deals with PfHDP1 homeodomain (GST-tagged). In words: gcPBM binding intensity (ln(normalized median fluorescence intensity)); higher = stronger DNA binding. A digest of the protocol: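 Probes on an Agilent 4 × 180k array were primer-extended, double-stranded and 36 bp long, taken from intergenic genomic regions, with negative controls added. GST-tagged P. falciparum DNA-binding domains from E. coli, about 25 μg on average, were applied to the array for 1 h in 1× PBS containing 1% milk, 0.2 mg/ml BSA, 0.5% salmon testes DNA and 0.03% Triton X-100. Binding intensity, obtained after Alexa488 anti-GST antibody detection and a 488 nm scan, is the highest Masliner-normalised natural-log median intensity across replicate spots of either probe orientation.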
As for “AAAATATATAATATAACACACATATATTCTATATGG [CACACA_site4044]”, the “gcPBM binding intensity (ln)” value worked out at 6.37. The figure for “TTCAAAATATATATTTGTACATATAGGATCTTTTTC [XGTACX_site4500]” is 6.36; for “ATATATACATATAATTGTACTTGTGTTGTTTTTCTT [XGTACX_site1870]” it is 6.69; for “TTAACGCTTATTTTTTGTACTTATTTTATTTTAAAT [XGTACX_site3977]” it is 6.89. With “ACTCTATAATAAAATACACACAAGACTATCTAATAT [CACACA_site1796]”, the “gcPBM binding intensity (ln)” value is 6.68. Under “CAACATTAATATAAAGCACACATATATATAATATAT [CACACA_site8064]” stands 6.39; under “AATATAAACCCAAACACACACATATATATATATATA [CACACA_site268]”, 9.39; under “TTTTTTTTTTTGAGGAGGACACAAAAATATGCTACC [XGTACX_site756]”, 6.23.

As for “TTTTATTTATAATATATACACACTAACATTATTTAT [CACACA_site1284]”, the “gcPBM binding intensity (ln)” value is 6.34.

With “GAATATTTATCATGGGGTACCTTAAAAAAGGGAAAA [XGTACX_site298]”, the “gcPBM binding intensity (ln)” value is 6.04.

“ATATCTTAAATTATTTGTACATATATATATATATAT [XGTACX_site8034]”: the “gcPBM binding intensity (ln)” value stood at 9.46. For “AATATAAAAATATAAAAACACACGTAAAAAAATTTA [CACACA_site3399]”, the “gcPBM binding intensity (ln)” value was 6.65. As for “TATATTCTTTTAAACAGTACACACACACATATATAT [XGTACX_site1701]”, the “gcPBM binding intensity (ln)” value is 7.27. The figure for “AAAAAAATTAAAAATAAAGAAAAAAAAAAAAAAAAA [GTGCAC_negctrl_site401]” is 6.07; for “TTAATACACCATAAAAGTACATAATATGATATTTAA [XGTACX_site8561]” it is 6.29; for “ATATGTTTGATTTTTTTTTTTTTTTTTTTTATGTGT [CACACA_negctrl_site1001]” it is 6.37. As for “AAAAAAAAAATTAAAAGTACAGAAAATAAATAAATA [XGTACX_site7470]”, the “gcPBM binding intensity (ln)” value was 6.08. Under “AAGAAAATAAATAATACACACAAGGATTTGTAAATA [CACACA_site690]” stands 6.36; under “CTTTTTTTTTAAAAATGTACACATTTTTGAAAATAC [XGTACX_site3127]”, 6.16. The figure for “TTTTTCTTTTTTTTTTCCTTTATCACATAAGAAAAA [CACACA_negctrl_site192]” is 6.33; for “AAGATATGAGGGAATACACACATATATATATATATA [CACACA_site1581]” it is 9.38; for “AAAATGAAGAAGTGCACACATATATATATTTATATA [CACACA_site507]” it is 9.11.

In the case of “TTTTCCCTTACAGAAAAAAAAAAATTCCTAACCCCG [CACACA_negctrl_site650]”, the “gcPBM binding intensity (ln)” value stood at 6.63. Take “TTATATATTTATAATCGTACAATAATTAACGTAAAA [XGTACX_site3206]”: the “gcPBM binding intensity (ln)” value amounted to 6.54. Under “ATATATTTTAGGAGAGTGCATTTAATATTATTTAAT [GTGCAC_site9444]” stands 8.17; under “CATATAATAAATAATACACACATATTGTAAATATAT [CACACA_site5734]”, 6.46. Under “TAAAATAAAATAAAATGTACTTTCCTTTTGATAATA [XGTACX_site6288]” stands 5.96; under AATTGAGTATCGTGAGTGCAAAACGTGGTTCAAAGA, 10.1. Consider “GTAATGAACAAACACAAAAAAAAAAAAAAAATAATA [TGCATGCA_negctrl_site344]”, for which the “gcPBM binding intensity (ln)” value turned out to be 6.1. The figure for “GACATATTATTCATGTGTACATATTATATGTATATA [XGTACX_site3442]” is 6.51; for “AAAAAAGAAGACATCTAAGTAATAGTAACAATGTAT [CACACA_negctrl_site1660]” it is 6.43. Regarding “TATAAATATACACCCACACACATATATAAATAAATA [CACACA_site7717]”, the “gcPBM binding intensity (ln)” value came to 7.12.

With AAGAATTTAGAAGGCATGCACTTAAACATGCATATA, the “gcPBM binding intensity (ln)” value is 7.52. Regarding “TATATGGGATATATGTGTACATATAAAATATGTATC [XGTACX_site3365]”, the “gcPBM binding intensity (ln)” value turned out to be 6.37. The figure for “TTTTTTTTTTTTTTTACACACATTTGAATAACTTTA [CACACA_site6810]” is 6.62. The figure for “CTTAATATGAATAAAACACACATATATAATTTGTAA [CACACA_site5120]” is 6.18; for “AAAAGAATTAAAAAATGTACATATAATATATATATA [XGTACX_site6721]” it is 8.21; for “ATAACTATATACATCTGTACATAATACATAGATAAA [XGTACX_site2795]” it is 6.52.

“ATTTGTATATAATATATATAATTTTTTTTTTTTGTT [XGTACX_negctrl_site425]”: the “gcPBM binding intensity (ln)” value amounted to 6.16.

As to “ATATCTTCACTTATATGTACTTACATTTTTTTTTTT [XGTACX_site8696]”, the “gcPBM binding intensity (ln)” value was 6.74. With “ATTTGAAAAAATACTACACACCATATTGTTAATTTT [CACACA_site3829]”, the “gcPBM binding intensity (ln)” value turned out to be 6.3.

Turning to “AAGATTCATATAAAAAGTACAAAAAGAAAAAAATAA [XGTACX_site6033]”, the “gcPBM binding intensity (ln)” value is 6.48. As to “TATACACATAGACACACACACATACACGCACATACA [CACACA_site6908]”, the “gcPBM binding intensity (ln)” value stood at 7.39. Under “TCTAAAAAAATTATATCACACATTATAAAGCATATT [CACACA_site4885]” stands 6.25; under “TAATAAGTATCAAAATGTACATGACAAAAATAATTT [XGTACX_site8961]”, 6.75; under “ATAATTTTATATAAATGTACATACATTTTTATTATA [XGTACX_site7368]”, 6.36.

Take “ATAATATATGCAAAAACATGCACATAATATGTAAAA [TGCATGCA_site742]”: the “gcPBM binding intensity (ln)” value came out at 9.97. As for “ATATATATGTATATATGTACATATATGTATATATAT [XGTACX_site4772]”, the “gcPBM binding intensity (ln)” value came to 6.94. The figure for “ATTAAATCATATGAATGTACGGATATATATATTTCC [XGTACX_site8650]” is 6.6; for “TGATAAATTTTCACATGTACATATATAGAATAACCT [XGTACX_site2860]” it is 6.98; for “CATAATATATATTGAGCATGCTACTATTGTTAGAAA [TGCATGCA_site740]” it is 7.65. Under “AAAAAAAAAAACTACACACATACAAATATTTATATA [CACACA_site2574]” stands 6.45. For “ACATATAAGATATATACACACATATAAATACATTAA [CACACA_site7763]”, the “gcPBM binding intensity (ln)” value was determined as 6.46.

Turning to “CAAATAAAAAAAGTAGCACACATGAATAAAATATAT [CACACA_site3130]”, the “gcPBM binding intensity (ln)” value was 7.02. Under “ATACATACATATGTATGTACGTATGTATGTATGTAT [XGTACX_site3853]” stands 6.39; under “AGAATAGTGGAAAACACACACGTTTGAGATATGGAC [CACACA_site4782]”, 6.99. “TTATAAAAAGAACAATTAAAAAAAAATAAAATAAAA [XGTACX_negctrl_site398]”: the “gcPBM binding intensity (ln)” value is 6.48. Under “TTTTTATGTTCTATATATATATATATATATATATAT [GTGCAC_negctrl_site306]” stands 9.4. With “GCACGTGTGATTAGATGTACATAACATGTATATGTC [XGTACX_site4632]”, the “gcPBM binding intensity (ln)” value turned out to be 6.37. “CACCCACCCACATACACACACATACACATATATATA [CACACA_site1722]”: the “gcPBM binding intensity (ln)” value was 7.49. Under “ATATCTCAACATATCACACATATATATATATAATAT [CACACA_site5018]” stands 6.97; under “AATAAATATAAATAAATAAATATATATATATATTTG [CACACA_negctrl_site1486]”, 6.25. For “CATCCACATAGATGTACACACATATATATATATATA [CACACA_site5616]”, the “gcPBM binding intensity (ln)” value worked out at 9.3. Consider “ATATGTATATTTTTGATGTGCTTTTATTTGGTTATT [CACACA_negctrl_site626]”, for which the “gcPBM binding intensity (ln)” value turned out to be 6.59. Under “AAAAAAAATACATACACACACACACGCACATATATA [CACACA_site7645]” stands 7.45; under “ATTTTTTTATAATCAACCCATTTCCTACATTTTTAT [CACACA_negctrl_site1237]”, 6.84; under “CTTCATAAAAATTGCACACATATAATAATGTACATA [CACACA_site2212]”, 10.4. The figure for “TATTAAAAGGTGAGTACACACATATCTGAGTATATA [CACACA_site5192]” is 6.83. Under “TTAAAAAGAGGTGACACACACATATAAATCTAAATC [CACACA_site3738]” stands 6.22. Turning to “TAATATACTATAAATACACACAAGTGTACATACTTC [CACACA_site983]”, the “gcPBM binding intensity (ln)” value came to 6.52.

Consider “TACAATATAATTTAATGTACATGTGAATATATATAT [XGTACX_site4675]”, for which the “gcPBM binding intensity (ln)” value worked out at 8.08. “TTGTGCTAAACAAAAAAAAATATATATAAAAAAATA [XGTACX_negctrl_site388]”: the “gcPBM binding intensity (ln)” value is 6.44.

In the case of “GTTATTAAATAATTCACACACATATATAAATAAATA [CACACA_site7129]”, the “gcPBM binding intensity (ln)” value came out at 6.7. As to “ATAAAAATATATGAAACACACAGTTTCTATAAGAAA [CACACA_site4156]”, the “gcPBM binding intensity (ln)” value stood at 6.08. The figure for “ATATGTATATAATAAGAACACACATATATTTAATTT [CACACA_site8961]” is 6.48.

On to “ATTATTATAGATAAAACACACAATTTTGTTTTCACA [CACACA_site7792]”, for which the “gcPBM binding intensity (ln)” value turned out to be 6.33. Turning to “TTAACAAAGAAACACACACACACACCCAAAAAAAAA [CACACA_site516]”, the “gcPBM binding intensity (ln)” value amounted to 7.03. With “GCCATAAAGATATATACACACATAAAAAAAAGTTAT [CACACA_site6674]”, the “gcPBM binding intensity (ln)” value was 6.72.

With “AAAAAAAAAATTAAATGTACATATATAATATATATA [XGTACX_site7245]”, the “gcPBM binding intensity (ln)” value came out at 7.1. Under “TTATATTTTATTATGTGTACGTATATAATATAATAT [XGTACX_site6230]” stands 6.43; under “AAACAATTATTATATTGTACATATATTACATTATTA [XGTACX_site1089]”, 6.23. Under “TAAAACTTAATGTTTTGTACATATTCTTCTTTATTT [XGTACX_site4271]” stands 6.16; under “AATCAAAAAGGAACCATAATATTACAACTATATATA [CACACA_negctrl_site381]”, 6.33. On to “TTTTATACATATTTTACACACTAAAATATACAGATA [CACACA_site4333]”, for which the “gcPBM binding intensity (ln)” value was determined as 6.65. Consider “TTACATATTCATAAAAGTACATAATTATAAAAGGTA [XGTACX_site906]”, for which the “gcPBM binding intensity (ln)” value was 6.68. With “AAAATTAATTTATTTACACACAATATTAAAATATTT [CACACA_site7512]”, the “gcPBM binding intensity (ln)” value turned out to be 6.66. Under “ACATGCAAGAAGAAATGTACTTAACATCTATATAGA [XGTACX_site7338]” stands 6.54. On to “ACTAAATAAATAAATATAATATATAAATATGTATGT [TGCATGCA_negctrl_site583]”, for which the “gcPBM binding intensity (ln)” value stood at 6.31.

Values taken from the supplement of paper PMC11417369.
